Results taken from PubChem BioAssay (NCATS).
Some of the results follow. The main result of the screen is listed elsewhere. These columns were measured beside it and carry no call. Words in brackets tell the shape of the fitted curve; partial curves, single points and poor fits give uncertain potencies.

Assay: qHTS drug screen for cell cycle checkpoint inhibitors in PARPi-resistant BRCA-mutant ovarian cancer cell lines. (AID 1963452)
Conditions: PEO1/OlaR viability, CellTiter-Glo luminescence, 96 h
Procedure, shortened: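 PEO1, PEO4 and PEO1/OlaR ovarian cancer cells, 600 per well, exposed 96 h at 37C to a dilution series. Viability read by CellTiter-Glo luminescence, normalized to DMSO and empty wells; activity summarized as Z-AUC.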

[1] = measured here: PEO1 parental viability
Tags describe the fitted curve by direction and shape.

| SMILES | AC50 [1] | AC50 (measured here: PEO4 viability) |
| --- | --- | --- |
| COC(=O)[C@]12CCC(C)(C)C[C@H]1[C@H]1C(=O)C=C3[C@@]4(C)C=C(C#N)C(=O)C(C)(C)[C@@H]4CC[C@@]3(C)[C@]1(C)CC2 | 1230 nM [falling, full curve] | 776 nM [falling, full curve] |
| CC1(C)CC[C@]2(NC(=O)C(C)(F)F)CC[C@]3(C)[C@H](C(=O)C=C4[C@@]5(C)C=C(C#N)C(=O)C(C)(C)[C@@H]5CC[C@]43C)[C@@H]2C1 | 1230 nM [falling, full curve] | 1550 nM [falling, partial curve, poor fit] |
